# Measurements taken from PubChem BioAssay (NCATS).
# “And” between values parts separate entries of the source, which are not always exact repeats. Equal entries are not always repeated. The inconclusive results got no clear call from the source; some entries with a clear call stand among them for comparison. For some of these results: A potency beside an inconclusive call is a rough fit, not a confirmed value. The source made the active and inactive calls. Unless noted, calls follow the shape of the dose curve; as a rule, active = well fitted curve in the direction sought with a large enough effect; inconclusive = small, poorly fitted or top-dose-only effect, or another doubt; inactive = no such curve, though single readings can be large; an effect the other way counts as inactive or inconclusive.
# Legend:
# [1] = biological target: Glutathione peroxidase 1 (Homo sapiens) (UniProt P07203); assay: Primary qHTS Assay for Inhibitors of Recombinant Selenoprotein Glutathione Peroxidase 1 (GPX1) (AID 1845191); also: nearly all actives have a fitted effect of over 65% in size; also: potency is read from the fitted curve at half-maximal effect
# UniProt P07203, sequence (P07203 whole entry, looked up): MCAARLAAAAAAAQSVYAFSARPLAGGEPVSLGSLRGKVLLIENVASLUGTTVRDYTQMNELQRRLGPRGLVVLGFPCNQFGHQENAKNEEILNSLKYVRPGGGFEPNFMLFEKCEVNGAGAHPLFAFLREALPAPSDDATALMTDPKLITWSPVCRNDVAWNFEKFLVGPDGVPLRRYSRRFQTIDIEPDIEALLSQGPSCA
# Procedure, shortened: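 NADPH consumption tracked by fluorescence at 340/450 nm between t=0 and t=15 min, room temperature. Final mix: 10 nM GPX1, 100 nM glutathione reductase, 1 mM GSH, 0.5 mM NADPH, 0.5 mM cumene hydroperoxide, 0.01% BSA; 30 min compound–enzyme preincubation.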
# [2] = biological target: Phospholipid hydroperoxide glutathione peroxidase GPX4 (Homo sapiens) (UniProt P36969); assay: Primary qHTS Assay for Inhibitors of Recombinant Selenoprotein Glutathione Peroxidase 4 (GPX4) (AID 1845192); also: potency is read from the fitted curve at half-maximal effect; nearly all actives have a fitted effect of over 65% in size
# UniProt P36969, sequence (P36969 whole entry, looked up): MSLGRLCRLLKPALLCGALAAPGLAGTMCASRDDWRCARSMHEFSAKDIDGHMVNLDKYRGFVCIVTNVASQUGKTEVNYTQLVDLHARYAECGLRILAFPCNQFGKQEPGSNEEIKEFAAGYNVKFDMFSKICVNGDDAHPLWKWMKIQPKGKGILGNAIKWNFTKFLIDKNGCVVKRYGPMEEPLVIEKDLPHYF
# Procedure, shortened: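 NADPH consumption followed by fluorescence at 340/450 nm, t=0 and after 15 min at room temperature. Reaction started with cumene hydroperoxide (0.5 mM final) after 30 min compound–GPX4 preincubation; final 200 nM GPX4, 100 nM GR, 1 mM GSH, 0.5 mM NADPH.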
# [3] = NFAT Signaling Pathway (AID 444; active = well fitted curve in either direction with a large enough effect, not every such curve was filed as active; inconclusive = small, poorly fitted or top-dose-only effect, or another doubt;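 also: carbachol stimulus at about its EC50 of 1 µM final; % is scaled to controls: 0 for no effect and ±100 for the full control effect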); settings: Jurkat NFAT-bla M1, carbachol, beta-lactamase ratio, 5 h; at 17.2 µM (top of the series) unless noted
# Procedure, shortened: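 Read-out: CCF4 FRET ratio (460 nm/530 nm) after 1 h RT dye loading, used for %activity and AC50 from titration series. Cells: Jurkat NFAT-β-lactamase/M1 line, treated with compound plus 1 uM carbachol for 5 h, 37 °C.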
# [4] = qHTS Assay for Identification of Small Molecule Agonists for Hypoxia Response Element Signaling Pathway (AID 914; active = well fitted activation curve with a large enough effect in the signal ratio, with a control signal flat, not every such curve was filed as active; inconclusive = small, poorly fitted or top-dose-only effect, or effect the other way, or a change in a side signal; the % refers to the signal ratio; also: top concentration of the series differs between compounds; % of control where 0% means no effect); settings: ME-180 (cervical carcinoma) HRE-bla reporter, beta-lactamase ratio, CoCl2, 17 h; activation: stronger effect = higher value
# Procedure, shortened: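 Positive modulation of EC50 CoCl2-induced hypoxia response element signaling is measured in ME-180 cells with a beta-lactamase reporter. Compounds are titrated, incubation runs 17 hours, and %Activity derives from the blue/green ratio.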
# [5] = biological target: Ubiquitin carboxyl-terminal hydrolase 1 (Homo sapiens) (UniProt O94782); assay: Inhibitors of USP1/UAF1: Pilot qHTS (AID 504865);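 also: rhodamine fluorescence freed from ubiquitin-rhodamine substrate followed over time; potency is read from the fitted curve at half-maximal effect; nearly all actives have a fitted effect of over 35% in size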
# UniProt O94782, sequence (O94782 whole entry, looked up): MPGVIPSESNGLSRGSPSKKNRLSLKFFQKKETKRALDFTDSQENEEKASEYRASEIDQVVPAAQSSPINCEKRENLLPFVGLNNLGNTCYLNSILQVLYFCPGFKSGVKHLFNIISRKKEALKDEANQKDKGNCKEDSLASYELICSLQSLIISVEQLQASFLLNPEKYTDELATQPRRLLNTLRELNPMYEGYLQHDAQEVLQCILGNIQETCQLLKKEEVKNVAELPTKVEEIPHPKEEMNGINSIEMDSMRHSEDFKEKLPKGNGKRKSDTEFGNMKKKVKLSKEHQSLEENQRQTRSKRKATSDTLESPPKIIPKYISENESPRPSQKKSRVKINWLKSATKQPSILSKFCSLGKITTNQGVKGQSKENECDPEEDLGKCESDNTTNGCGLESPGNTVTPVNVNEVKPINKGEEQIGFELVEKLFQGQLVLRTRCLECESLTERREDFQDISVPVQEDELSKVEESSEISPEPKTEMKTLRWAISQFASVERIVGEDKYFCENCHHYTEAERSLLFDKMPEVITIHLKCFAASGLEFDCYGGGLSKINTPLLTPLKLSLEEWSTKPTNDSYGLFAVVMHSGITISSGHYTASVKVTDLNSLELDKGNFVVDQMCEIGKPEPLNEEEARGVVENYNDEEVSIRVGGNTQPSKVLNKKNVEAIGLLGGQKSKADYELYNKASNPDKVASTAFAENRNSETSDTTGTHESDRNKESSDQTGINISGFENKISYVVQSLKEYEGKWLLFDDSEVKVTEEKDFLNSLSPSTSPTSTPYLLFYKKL
# Procedure, shortened: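 USP1/UAF1 complex (1nM) preincubated with compound 15 min at room temperature, then Ub-Rho substrate (150nM final) added. Fluorescence read kinetically at 480/540 nm, 6 reads every 60 seconds. Buffer: 50mM HEPES pH 7.8, 0.5mM EDTA, 0.1 mg/ml BSA, 1mM TCEP, 0.01% Tween-20.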
# [6] = tested on: 3D7; assay: qHTS profiling for inhibitors of Plasmodium falciparum proliferation (AID 504749);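 also: 0% = DMSO vehicle and full inhibition = artemisinin control; nearly all actives have a fitted effect of over 60% in size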; settings: P. falciparum in erythrocytes, SYBR Green DNA, 72 h; series mostly up to 28.7 µM
# Procedure, shortened: (§1)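 SYBR Green fluorescence of parasite DNA, read after lysis and overnight dark incubation, measured growth over 72 h in erythrocyte culture at 0.3% parasitemia and 2.5% hematocrit. Data normalised to DMSO and 0.29 uM artemisinin, with plate-drift correction.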
# [7] = tested on: AS120; assay: as above; settings: P. falciparum in erythrocytes, SYBR Green DNA, 72 h; series mostly up to 12.8 µM
# Procedure, shortened: as §1
# [8] = tested on: CP211; assay: as above; settings: P. falciparum in erythrocytes, SYBR Green DNA, 72 h; series mostly up to 28.7 µM
# Procedure, shortened: as §1
# [9] = tested on: TAB109; assay: as above; settings: P. falciparum in erythrocytes, SYBR Green DNA, 72 h; series mostly up to 28.7 µM
# Procedure, shortened: as §1
# [10] = biological target: Luciferin 4-monooxygenase (Photinus pyralis) (UniProt P08659); assay: Biochemical firefly luciferase enzyme assay for NPC (AID 624030);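 also: purified P. pyralis luciferase at 10 nM with luciferin and ATP substrate; 0% = DMSO and -100% = full luciferase inhibition by PTC124 control; nearly all actives have a fitted effect of over 70% in size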
# UniProt P08659, sequence (P08659 whole entry, looked up): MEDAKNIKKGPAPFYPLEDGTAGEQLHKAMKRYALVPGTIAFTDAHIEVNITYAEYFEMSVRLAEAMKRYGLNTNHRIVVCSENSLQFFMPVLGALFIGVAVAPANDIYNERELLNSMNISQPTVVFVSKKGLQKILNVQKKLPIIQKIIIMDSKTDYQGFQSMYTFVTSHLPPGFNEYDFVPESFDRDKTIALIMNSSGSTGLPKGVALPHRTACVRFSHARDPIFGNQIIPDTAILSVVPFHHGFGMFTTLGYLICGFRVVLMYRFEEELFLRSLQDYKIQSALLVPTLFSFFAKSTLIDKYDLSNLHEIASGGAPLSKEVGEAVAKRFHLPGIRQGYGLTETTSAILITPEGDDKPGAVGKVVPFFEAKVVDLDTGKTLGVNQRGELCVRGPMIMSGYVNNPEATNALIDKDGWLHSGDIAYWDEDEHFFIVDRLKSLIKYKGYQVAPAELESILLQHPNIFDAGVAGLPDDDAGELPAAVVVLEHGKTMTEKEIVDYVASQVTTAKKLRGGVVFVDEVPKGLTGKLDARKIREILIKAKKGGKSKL
# Procedure, shortened: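 Direct inhibition of firefly luciferase enzyme (10 nM final, 50 mM Tris Acetate) assessed by luminescence within 5 minutes. Percent activity scaled between DMSO and PTC124 positive control, with concentration-effect curves classified by fit quality and response.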
# [11] = S16 Schwann cell PMP22 intronic element firefly luciferase assay (AID 624032);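 also: plate controls were DMSO for no effect and PTC124 positive control mean for full effect; nearly all actives have a fitted effect of over 30% in size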
# Procedure, shortened: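 Luciferase reporter of PMP22 intronic-element expression in stably transfected S16 rat Schwann cells, read by ONE-Glo luminescence after 24 h compound exposure at 37 C. Activity scaled between DMSO (0%) and positive-control PTC124; concentration-effect curves quality-classified.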
# [12] = S16 Schwann cell PMP22 intronic element beta-lactamase assay (AID 624044; calls by dose curve;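 also: 0% = DMSO and -100% = potassium clavulanate positive control; nearly all actives have a fitted effect of over 15% in size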); settings: S16 rat Schwann cells, PMP22 element beta-lactamase FRET, 24 h; ratio activity, negative = inhibition: at 38.3 µM (top of the series) unless noted
# Procedure, shortened: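 Beta-lactamase reporter under a PMP22 intronic regulatory element in stable S16 rat Schwann cells; 24 h compound exposure. 460 nm blue signal normalized between DMSO (0%) and potassium clavulanate, with 535 nm FRET tracking viability; curves classed by r2 and response.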
# [13] = qHTS Assay for Identifying Gametocytocidal Compounds (AID 743244);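 also: % is scaled to controls: 0 for no effect and ±100 for the full control effect; actives lower the fluorescent signal which means gametocytes are killed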; settings: P. falciparum 3D7 stage III-V gametocytes, alamarBlue, 72 h; max response: stronger effect = lower value
# Procedure, shortened: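 Viability read-out was resazurin reduction (alamarBlue, 24 h) measured at Ex 525/Em 598 nm. Beforehand, late-stage (III-V) 3D7 P. falciparum gametocytes at 20,000 cells/well were incubated with compound 72 h at 37C under 5% CO2.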
# [14] = tested on: CP192; assay: qHTS profiling for inhibitors of Plasmodium falciparum proliferation (AID 504749);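 also: 0% = DMSO vehicle and full inhibition = artemisinin control; nearly all actives have a fitted effect of over 60% in size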; settings: P. falciparum in erythrocytes, SYBR Green DNA, 72 h; activity, negative = inhibition: at 28.7 µM (top of the series)
# Procedure, shortened: as §1
# [15] = tested on: CP201; assay: as above; settings: P. falciparum in erythrocytes, SYBR Green DNA, 72 h; series mostly up to 28.7 µM
# Procedure, shortened: as §1
# [16] = tested on: HB3; assay: as above; settings: P. falciparum in erythrocytes, SYBR Green DNA, 72 h; series mostly up to 28.7 µM
# Procedure, shortened: as §1
# [17] = tested on: N140; assay: as above; settings: P. falciparum in erythrocytes, SYBR Green DNA, 72 h; series mostly up to 28.7 µM
# Procedure, shortened: as §1
# [18] = tested on: PC26; assay: as above; settings: P. falciparum in erythrocytes, SYBR Green DNA, 72 h; activity, negative = inhibition: at 28.7 µM (top of the series)
# Procedure, shortened: as §1
# [19] = tested on: PC49; assay: as above; settings: P. falciparum in erythrocytes, SYBR Green DNA, 72 h; series mostly up to 28.7 µM
# Procedure, shortened: as §1
# [20] = tested on: TAB165; assay: as above; settings: P. falciparum in erythrocytes, SYBR Green DNA, 72 h; series mostly up to 28.7 µM
# Procedure, shortened: as §1
# Tags tell the direction and shape of the fitted curve.
structure (smiles),measurement,setting,value
O=c1c(-c2ccc(O)cc2)coc2c([C@@H]3O[C@H](CO)[C@@H](O)[C@H](O)[C@H]3O)c(O)ccc12,Potency,[1],"inconclusive: 20.5 µM [inhibitor, single point]"
same,Potency,[2],"inconclusive: 25.5 µM [inhibitor, single point]"
Cc1c(OCC(F)(F)F)ccnc1C[S@@](=O)c1nc2ccccc2[nH]1,Potency,[1],active: 10.1 µM
same,Potency,[2],active: 10 µM
CC(O)C(CO)NC(=O)C1CSSCC(NC(=O)C(N)Cc2ccccc2)C(=O)NC(Cc2ccccc2)C(=O)NC(Cc2c[nH]c3ccccc23)C(=O)NC(CCCCN)C(=O)NC(C(C)O)C(=O)N1 (stereo unspecified),Potency,[1],"inconclusive: 11.1 µM [inhibitor, partial curve]"
same,Potency,[2],active: 12.6 µM
O=S(=O)(O)c1cc(O)ccc1O,Potency,[1],"inconclusive: 14.3 µM [inhibitor, partial curve, poor fit]"
same,Potency,[2],"inconclusive: 11.2 µM [inhibitor, partial curve]"
Cc1cc(C(=O)NNCc2ccccc2)no1,"activity change, negative = inhibition",[3],inactive: 11.8%
same,activation,[4],inconclusive: 16.6%
same,Potency,[5],"inconclusive: 44.7 µM [inhibitor, partial curve, poor fit]"
same,Potency,[1],inactive
same,Potency,[6],inactive
same,Potency,[7],inactive
same,Potency,[8],inactive
same,Potency,[9],inactive
O=C(NNCS(=O)(=O)O)c1ccncc1,Potency,[5],"inconclusive: 79.4 µM [inhibitor, partial curve]"
same,Potency,[10],inactive
same,Potency,[11],inactive
same,"ratio activity, negative = inhibition",[12],active: -19.9%
same,max response,[13],inactive: -7.51%
same,Potency,[1],active: 5.7 µM
same,Potency,[2],active: 3.98 µM
same,Potency,[6],inactive
same,Potency,[14],inactive
same,Potency,[15],inactive
same,Potency,[16],inactive
same,Potency,[17],inactive
same,Potency,[18],inactive
same,Potency,[19],inactive
same,Potency,[9],inactive
same,Potency,[20],inactive
CC1(C)S[C@@H]2[C@@H](N3C(=O)[C@@H](c4ccccc4)NC3(C)C)C(=O)N2[C@H]1C(=O)O,Potency,[1],"inconclusive: 28.6 µM [inhibitor, partial curve, poor fit]"
same,Potency,[2],"inconclusive: 25.1 µM [inhibitor, partial curve]"
NC(=O)c1cccc2[nH]c(-c3ccc([C@@H]4CCCN4)cc3F)nc12,Potency,[1],"inconclusive: 22.7 µM [inhibitor, partial curve] and inconclusive: 18 µM [inhibitor, single point]"
same,Potency,[2],"inconclusive: 20.2 µM [inhibitor, single point]"
Nc1nc(/C(=C/CC(=O)O)C(=O)N[C@@H]2C(=O)N3C(C(=O)O)=CCS[C@H]23)cs1,Potency,[1],active: 9.04 µM
same,Potency,[2],"inconclusive: 15.8 µM [inhibitor, partial curve]"
COCC1=C(C(=O)OC(C)OC(=O)OC(C)C)N2C(=O)[C@@H](NC(=O)/C(=N/OC)c3csc(N)n3)[C@H]2SC1 (stereo partly specified),Potency,[1],active: 9.04 µM
same,Potency,[2],active: 10 µM
NC(=O)c1nc(F)c[nH]c1=O,Potency,[1],"inconclusive: 2.05 µM [inhibitor, partial curve] and active: 20.2 µM"
same,Potency,[2],active: 9.04 µM and active: 22.4 µM
CC(=O)OCC1=C(C(=O)O)N2C(=O)[C@@H](NC(=O)[C@H](N)c3ccccc3)[C@H]2SC1,Potency,[1],active: 10.1 µM
same,Potency,[2],active: 15.8 µM
CC(OC(=O)OC1CCCCC1)OC(=O)C1=C(CSc2nnnn2CCN(C)C)CS[C@@H]2[C@H](NC(=O)Cc3csc(N)n3)C(=O)N12 (stereo partly specified),Potency,[1],active: 7.18 µM
same,Potency,[2],active: 8.91 µM
